Measurements reported in US20170008949A1 (Hoffmann-La Roche, published 2017).

How the values were obtained:
[1] = target: recombinant glycosylated human PAI-1 (active), produced in insect cells (human, UniProt P05121, glycosylated (sites not given)); experiment: cell-based or functional assay
[2] = target: recombinant non-glycosylated human PAI-1 (active), produced in E. coli as N-terminal 6xHis-tagged fusion … (human, UniProt P05121); experiment: cell-based or functional assay

IC50 (µM) vs. human PAI-1, PAI-1 inhibition assay (residual rPA serine protease activity) [1] [µM] | IC50 (µM) vs. human PAI-1, PAI-1 inhibition assay (residual rPA serine protease activity) [2] [µM] | Binder
0.002 | 0.0005 | PAI1-0005 (RCL-SMB-Fc conjugate) (Fc fusion) GTVASSSTAVIVSARGGGGSGGGGSGGGGSGGGGSGGGGSGGGGSESCKGRCTEGFNVDKKCQCDELCSYYQSCCTDYTAE[human IgG1 Fc not printed]
0.001 | 0.001 | PAI1-0036 (RCL-SMB-Fc conjugate) (Fc fusion) GTVASSSTAVIVSASGGGGSGGGGSGGGGSGGGGSGGGGSGGGGSESCKGRCTEGFNVDKKCQCDELCSYYQSCCTDYTAE[human IgG1 Fc not printed]
0.002 | 0.003 | PAI1-0004 (RCL-SMB-Fc conjugate) (Fc fusion) GTVASSSTAVIVSARGGGGSGGGGSGGGGSGGGGSESCKGRCTEGFNVDKKCQCDELCSYYQSCCTDYTAE[human IgG1 Fc not printed]
